Data taken from article PMC6212790.
Some of the results follow. At the low end of the ranking the order means little.

biological target: T1, GST-Rok (full length) (UniProt O34857); assay: protein binding microarray; conditions: Rok is a gene silencer of Bacillus subtilis; high values mean tight binding; most listed sequences are background and not binding sites; double strand, one strand shown;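 further: rank score from −0.5 (least bound) to 0.5 (best bound)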
T1 sequence: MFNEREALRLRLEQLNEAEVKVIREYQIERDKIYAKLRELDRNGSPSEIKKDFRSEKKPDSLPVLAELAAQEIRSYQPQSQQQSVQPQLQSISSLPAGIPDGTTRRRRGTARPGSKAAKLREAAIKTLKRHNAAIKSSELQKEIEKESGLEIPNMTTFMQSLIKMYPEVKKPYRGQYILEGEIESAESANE

| Sequence | binding signal [E-score] |
| --- | --- |
| CGAAGCCG | -0.291 |
| TCTGCGAA | 0.0783 |
| AAAATTGG | 0.123 |
| ACACATGT | -0.0201 |
| GAATTAAA | 0.116 |
| GCCAACGA | -0.11 |
| GAAAAAAC | 0.0889 |
| TAGCCCTA | 0.0605 |
| CAAGTCCG | -0.103 |
| CGACCATA | 0.0133 |
| ATATGGCG | 0.0102 |
| AAAACGTC | -0.00524 |
| AGGGCATA | -0.0488 |
| AAATTAGA | 0.211 |
| GAAGTGGA | 0.00673 |
| AGCTAGCC | -0.0428 |
| AGAGCTAT | 0.179 |
| CTTAGTTA | 0.18 |
| GTTACTAA | 0.283 |
| AATCGTCA | -0.0499 |
| GAATACCC | -0.185 |
| CTTAATTC | 0.139 |
| TAGCATAA | 0.229 |
| GCTGATCA | -0.0531 |
| CCGGAGAA | -0.186 |

| Sequence | binding signal [E-score] |
| --- | --- |
| GGAGACGA | -0.0426 |
| AGGGGCCA | -0.323 |
| AACACAAA | 0.216 |
| CGCTGACG | -0.282 |
| AAGAGATA | 0.185 |
| ACGCTCCG | -0.254 |
| CATCGAGG | -0.14 |
| GACGAACA | 0.0789 |
| TATCTGGA | 0.209 |
| ATGCAGAG | -0.0627 |
| AGTGGGTC | -0.185 |
| GGCGAGAA | -0.0302 |
| CCTTCTCG | -0.236 |
| CGGCAACC | -0.196 |
| ACTTGTAT | 0.236 |
| GAACATCC | -0.0496 |
| AAGGCATT | 0.0267 |
| AATGCTAA | 0.214 |
| CGTTGAGC | 0.109 |
| TAGCACGA | 0.108 |
| AATTTCGC | 0.13 |
| CAACAGTG | -0.00277 |
| CCGTATAA | 0.112 |
| CTAAGTTA | 0.228 |
| CTTACTCC | -0.193 |

| Sequence | binding signal [E-score] |
| --- | --- |
| CCTAAGCA | 0.00258 |
| GATCAGTA | 0.191 |
| AGCCCCAG | -0.362 |
| GAAGTACA | 0.199 |
| AGAAGGAA | -0.104 |
| AAAGATCA | 0.133 |
| AGGGAACC | -0.203 |
| CGTTTTGC | 0.106 |
| CATCGTAC | 0.0424 |
| AAACTTTG | 0.117 |
| AATCTCTG | 0.153 |
| CTTTACGC | 0.177 |
| GACTTTGA | -0.118 |
| CGCCAAGA | 0.0245 |
| CGTGTGAG | -0.0916 |
| CAAGTAGC | 0.119 |
| AGACTATG | 0.0447 |
| ATGGGGCG | -0.197 |
| AAACCCAG | 0.0583 |
| CGACACCG | -0.245 |
| GATTATGA | -0.00173 |
| AGTAGTAA | 0.384 |
| CCCGCACC | -0.123 |
| CGCCTGTC | -0.179 |
| TGAAGAAA | -0.102 |

| Sequence | binding signal [E-score] |
| --- | --- |
| ATTTATGA | 0.197 |
| GTCGCGCA | -0.0438 |
| GCTACTGA | 0.168 |
| GACCTGAC | -0.16 |
| AAACTGTC | -0.0352 |
| AACAGAAT | 0.0286 |
| ATTTGTTC | 0.232 |
| TTAGAAAA | 0.185 |
| CCCCACGG | -0.496 |
| ACAACCAA | 0.225 |
| CCGAGCAC | -0.203 |
| CTATAGTC | 0.096 |
| CGCTCTTC | -0.279 |
| GGCACACA | -0.24 |
| AGCCGGAG | -0.328 |
| TATCCAAA | 0.0834 |
| ATTGGAGG | -0.0695 |
| ACTAAGGA | 0.193 |
| AGTTCGCA | 0.0432 |
| ACTGATGC | -0.0827 |
| TATAGCGA | 0.178 |
| CTAACTAG | 0.276 |
| AAATGGCC | 0.0934 |
| ACCGGCAT | -0.0275 |
| CACCTCTG | -0.00886 |

| Sequence | binding signal [E-score] |
| --- | --- |
| AATTATAA | 0.361 |
| ATTACGTA | 0.38 |
| AATGCTAG | 0.163 |
| AACTTAAT | 0.218 |
| CGCGGCAG | -0.24 |
| GCAACGTA | 0.151 |
| AAGCCTTC | -0.293 |
| AGGCTGGC | -0.454 |
| CAAGATCC | -0.155 |
| CCTAGTAA | 0.256 |
| ACACAGCA | 0.0417 |
| GTAAGATA | 0.233 |
| ACCTAAGA | 0.015 |
| GGTTGTTA | 0.0141 |
| ACATGACT | 0.13 |
| CATGATCA | 0.0282 |
| AGCCGGTC | -0.186 |
| GCACACTA | 0.109 |
| ACACGAGC | -0.0679 |
| CGGACGCA | -0.0715 |
| ACCTCCAT | 0.0858 |
| GCTCTGAA | -0.165 |
| CGCATAGC | -0.117 |
| CATAGTAA | 0.271 |
| AGGTGCCG | -0.147 |

| Sequence | binding signal [E-score] |
| --- | --- |
| AGTGGACC | -0.0716 |
| CGATATAG | 0.191 |
| AGAAGGTC | -0.0225 |
| AGTTAATG | 0.176 |
| ATATGCAA | 0.333 |
| ATGGTGCA | -0.0265 |
| ACTCGTGG | -0.173 |
| GATCCCCA | -0.34 |
| CTCTCAAA | -0.134 |
| ATCGCATA | 0.205 |
| AAGAGAAT | 0.113 |
| CGACTTTC | 0.0668 |
| GAGTAAAC | 0.000344 |
| AACCAGCC | -0.124 |
| TGCATAAA | 0.169 |
| AGTGCCTC | -0.273 |
| CAATTTAA | 0.152 |
| AGCGGGGA | -0.076 |
| GTTACGCA | 0.029 |
| CCCCCAAG | -0.373 |
| CCACATCA | 0.0395 |
| CGGCTGCC | -0.291 |
| ACTTCTCC | 0.00788 |
| AACGGGGC | -0.148 |
| AGCATCAT | 0.0173 |

| Sequence | binding signal [E-score] |
| --- | --- |
| CCGCGGTA | -0.0227 |
| CGTGCTCC | -0.286 |
| AGTCCGGA | -0.115 |
| CGACCAGA | 0.0144 |
| AAATCAGG | 0.149 |
| GACGATAA | 0.0346 |
| AACAGCAT | 0.0333 |
| CGCACCAA | 0.0606 |
| GGATTTGA | -0.0757 |
| AGCGCGCT | 0.0465 |
| CCCACCAG | -0.326 |
| ATGTCTCA | -0.0485 |
| ACAGGACG | -0.0527 |
| GCTGCGCA | -0.146 |
| GTATACAA | 0.308 |
| ACCCTAAG | -0.185 |
| CCCATGTA | 0.12 |
| ACTCGGGG | -0.227 |
| AATCTCGT | 0.133 |
| AAGAGAGG | -0.35 |
| GTGCCGAA | -0.154 |
| AGCCGTCG | -0.429 |
